# Hit rate of the full screen: of about 310,000 compounds, about 2,200 (0.71%) showed an effect of 50% or more. Effects have a minus sign here. The list shows a part of the results.
# Target: human ether-à-go-go-related gene (hERG) potassium channel (human, UniProt Q12809)
# Assay: primary screen, population patch clamp on CHO cells stably expressing hERG
# Chain of human ether-à-go-go-related gene (hERG) potassium channel (Q12809 whole entry, looked up): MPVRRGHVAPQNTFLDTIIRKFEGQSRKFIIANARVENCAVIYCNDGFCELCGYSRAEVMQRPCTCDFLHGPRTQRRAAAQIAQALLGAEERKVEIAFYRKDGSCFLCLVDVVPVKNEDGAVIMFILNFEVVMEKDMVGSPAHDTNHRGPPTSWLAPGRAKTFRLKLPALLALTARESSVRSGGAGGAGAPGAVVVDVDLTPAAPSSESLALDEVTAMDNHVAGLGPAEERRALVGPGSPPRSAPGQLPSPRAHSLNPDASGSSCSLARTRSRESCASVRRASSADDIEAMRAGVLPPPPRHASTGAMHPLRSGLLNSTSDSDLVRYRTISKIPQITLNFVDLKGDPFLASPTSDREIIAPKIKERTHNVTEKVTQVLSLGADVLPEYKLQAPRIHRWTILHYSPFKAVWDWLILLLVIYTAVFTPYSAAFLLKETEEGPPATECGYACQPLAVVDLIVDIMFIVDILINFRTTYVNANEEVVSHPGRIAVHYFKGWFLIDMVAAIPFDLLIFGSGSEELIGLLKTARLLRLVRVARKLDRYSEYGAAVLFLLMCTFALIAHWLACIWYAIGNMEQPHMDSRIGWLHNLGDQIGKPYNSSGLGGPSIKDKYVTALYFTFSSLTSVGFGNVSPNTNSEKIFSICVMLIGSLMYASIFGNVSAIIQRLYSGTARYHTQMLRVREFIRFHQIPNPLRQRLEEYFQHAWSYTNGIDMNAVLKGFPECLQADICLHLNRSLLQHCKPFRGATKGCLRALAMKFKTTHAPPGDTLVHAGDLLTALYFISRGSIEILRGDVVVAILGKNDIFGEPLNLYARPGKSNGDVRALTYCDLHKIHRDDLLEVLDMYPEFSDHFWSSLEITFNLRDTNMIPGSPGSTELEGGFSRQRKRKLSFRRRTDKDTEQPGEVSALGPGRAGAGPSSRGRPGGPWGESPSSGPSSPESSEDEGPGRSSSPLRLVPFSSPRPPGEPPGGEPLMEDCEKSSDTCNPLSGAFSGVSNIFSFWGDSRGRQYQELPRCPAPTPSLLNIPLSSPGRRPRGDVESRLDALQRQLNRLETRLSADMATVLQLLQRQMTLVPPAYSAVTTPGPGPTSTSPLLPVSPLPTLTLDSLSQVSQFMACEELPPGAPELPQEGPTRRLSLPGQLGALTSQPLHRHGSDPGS
row,SMILES,"hERG current change (%, negative = inhibition) at 1uM"
1,CCO[C@@H]1OC(C(=O)N2CCN(Cc3ccc4c(c3)OCO4)CC2)=C[C@H](c2coc3ccccc3c2=O)[C@H]1CCCO,9.29%
2,Cc1nc2ccccc2c(=O)n1-c1ccc(NS(=O)(=O)c2cc(F)ccc2F)cc1,5%
3,O=C(N/N=C/c1cn(CC(=O)N2CCOCC2)c2ccccc12)c1cccnc1,11.7%
4,COc1ccc(Cl)cc1C(=O)NNC(=S)NC(=O)/C=C/c1ccco1,11%
5,C/C(=C\c1ccco1)C1C(C#N)=C(N)OC2=C1C(=O)CC(C)(C)C2 (stereo not drawn),7.43%
6,O=C(NC1CCCCCC1)C1CCC(CNS(=O)(=O)c2ccc(Br)s2)CC1 (stereo not drawn),12.5%
7,COc1ccccc1N1CCN(C(c2cccs2)C(C)NC(=O)c2ccco2)CC1 (stereo not drawn),5.62%
8,Cc1ccc(-c2nc3cc(NC(=O)C(C)C)ccc3o2)cc1C,1.92%
9,CCOc1cc(S(=O)(=O)Nc2ccc(Cl)cn2)ccc1Cl,14.4%
10,O=C(O)Cc1ccc(N=Nc2c(O)c(C(=O)O)cc3ccccc23)cc1,15.7%
11,COc1ccccc1C1C(C(C)=O)=C(O)C(=O)N1c1ccc(O)cc1 (stereo not drawn),0.388%
12,COc1ccccc1NS(=O)(=O)c1ccc(NC(=O)c2[nH]nc(OC)c2[N+](=O)[O-])cc1,6.15%
13,CCc1ccc(CNC(=O)CCCn2c(=O)c3cccn3c3cccnc32)cc1,6.98%
14,COc1ccc(-c2nn(-c3ccccc3)cc2C(=O)O)cc1OC,17.1%
15,CCOC(=O)C1(Cc2cccc(OC)c2)CCN(Cc2cccc(OC)c2O)CC1,-22.8%
16,COC(=O)c1ccccc1NC(=O)CSc1nc(N)cc(N)n1,3.36%
17,COc1ccc(N(CCC#N)C(=O)/C(C#N)=C\c2cccs2)cc1,4.19%
18,N#Cc1ccccc1NC(=S)NC(=O)c1cccs1,19.7%
19,Cc1ccc(C)c(C(=O)NC(C)CCc2ccccc2)c1 (stereo not drawn),10.5%
20,O=S1(=O)CC2N=C(N(Cc3c(F)cccc3Cl)c3ccccc3F)SC2C1 (stereo not drawn),12.6%
21,Cc1cccc(C)c1NC(=O)COC(=O)c1c2c(nc3ccccc13)/C(=C\c1ccc3c(c1)OCO3)CCC2,2.44%
22,Brc1ccc(Oc2ncc(CN3CCOCC3)s2)cc1,-2.83%
23,O=C(OCC(=O)N1CCCCCC1)c1ccccc1Br,0.127%
24,Cc1cc(C)c2c(N)c(C(=O)Nc3c(C)n(C)n(-c4ccccc4)c3=O)sc2n1,22.9%
25,Oc1ccc(Nc2nnc(-c3ccc(O)cc3)c3ccccc23)cc1,5.28%
26,N/C(=N\OS(=O)(=O)c1ccccc1)c1ccncc1,10.5%
27,CN(C(=O)c1ccc(NC(=O)Cc2ccc(NC(=O)C3CCCN(C(=O)C4CCCCC4)C3)cc2)cc1)C1CC1 (stereo not drawn),12.6%

row,SMILES,"hERG current change (%, negative = inhibition) at 1uM"
1,COc1cccc(CNC(=O)c2cc(S(=O)(=O)N3CCOCC3)ccc2N2CCCC2)c1,6.17%
2,O=C(CCNC(=O)c1ccc(Br)cc1)NCC(c1ccco1)N1CCCCC1 (stereo not drawn),3.27%
3,O=C(CSc1ccc(-c2nc3ccccc3[nH]2)cn1)Nc1ccc(S(=O)(=O)N2CCCC2)cc1,5.9%
4,COc1cccc(N2CC(C(=O)Nc3c(C)cccc3C)CC2=O)c1 (stereo not drawn),3.99%
5,CC1(C)C(=O)OC(c2ccccc2)C(C)(C)C1=O (stereo not drawn),-6.15%
6,CCCCC#Cc1cncc(C(=O)NN)c1,9.47%
7,COc1ccc(OCC(=O)Nc2ccccc2C(=O)Nc2ccc(C(=O)O)cc2)cc1,6.89%
8,C=CCn1c(SCC(=O)Nc2nc3ccccc3s2)nnc1-c1ccccc1O,6.55%
9,CCOC(=O)c1c(C)[nH]c(C(=O)COC(=O)CSCC(=O)N(CC)CC)c1C,7.65%
10,Cn1nnnc1SCC(=O)N1CCN(c2cccc(Cl)c2)CC1,-3.97%
11,CC(C)Oc1ccc(C(=O)Nc2ccc([N+](=O)[O-])cc2)cc1,6.66%
12,CC(C)NC(=O)C1CCN(C(=O)c2cc3sccc3n2Cc2ccc(F)cc2)CC1,3.39%
13,CCc1nc(SCC(=O)NCCc2ccccc2)c2oc3ccccc3c2n1,0.134%
14,CC(C)c1ccc2[nH]c(O)c(N=NC(=S)NCCc3ccccc3)c2c1,8.3%
15,Cc1ccc(NCCC(=O)c2cccc([N+](=O)[O-])c2)c(C)c1,12.4%
16,Cc1ccc(Nc2cc(C(=O)NCCCN3CCOCC3)c3ccccc3n2)cc1C,10%
17,COCC(C)N1CCC(Oc2ccc(C(=O)NCc3ccccn3)cc2)CC1 (stereo not drawn),22.3%
18,NC(=O)CC(NC(=O)Cc1ccc(Br)cc1)c1ccc(NCCN2CCOCC2)c([N+](=O)[O-])c1 (stereo not drawn),17.1%
19,COc1ccccc1Nc1nc(-c2ccc([N+](=O)[O-])cc2)nc2ccccc12,6.46%
20,COc1ccc([N+](=O)[O-])c(OC)c1C(=O)NC(=O)Nc1nc(C)cc(C)n1,9.06%
21,O=C(/C=C/c1ccc(F)cc1)NCCCn1ccnc1,5.67%
22,CCOC(=O)c1ccc(NS(=O)(=O)c2cnc[nH]2)cc1,11.3%
23,COc1ccc(-c2c(C)nn(-c3ccccc3)c2N)cc1OC,3.94%
24,CCCn1nc(C(=O)NC2CCCc3ccccc32)c2ccccc2c1=O (stereo not drawn),6.25%
25,FC(F)(F)COc1nc(N2CCOCC2)nc(N(c2ccccc2)c2ccccc2)n1,-4.99%
26,CN1CCN(C(CNC(=O)C(=O)Nc2ccc3c(c2)OCO3)c2ccc(F)cc2)CC1 (stereo not drawn),-6.21%
27,Cc1ccc(S(=O)(=O)c2cnc(-c3ccccc3)nc2N2CCN(C)CC2)cc1,26.6%

# — PMC4336329 (PLoS ONE, 2015)
